Data: article PMC3605390, “Characterisation of ATP-Dependent Mur Ligases Involved in the Biogenesis of Cell Wall Peptidoglycan in Mycobacterium tuberculosis” (PLoS ONE, 2013)
Where two headings read alike, the source gives them in different places. No constants are given. Whether binding was seen depends on the method and setting. For some of these results: In cells and extracts the contact can be indirect. Some results given as binding are weak or reduced against the parent protein; the word gives no strength. For some of these results: Where a sequence is shown, tags or fusion partners need not be part of it.

T1: MurC synthetase (Rv2152c) of Mycobacterium tuberculosis, M-PFC fusion (Mycobacterium tuberculosis H37Rv) (UniProt P9WJL7)
T1 sequence: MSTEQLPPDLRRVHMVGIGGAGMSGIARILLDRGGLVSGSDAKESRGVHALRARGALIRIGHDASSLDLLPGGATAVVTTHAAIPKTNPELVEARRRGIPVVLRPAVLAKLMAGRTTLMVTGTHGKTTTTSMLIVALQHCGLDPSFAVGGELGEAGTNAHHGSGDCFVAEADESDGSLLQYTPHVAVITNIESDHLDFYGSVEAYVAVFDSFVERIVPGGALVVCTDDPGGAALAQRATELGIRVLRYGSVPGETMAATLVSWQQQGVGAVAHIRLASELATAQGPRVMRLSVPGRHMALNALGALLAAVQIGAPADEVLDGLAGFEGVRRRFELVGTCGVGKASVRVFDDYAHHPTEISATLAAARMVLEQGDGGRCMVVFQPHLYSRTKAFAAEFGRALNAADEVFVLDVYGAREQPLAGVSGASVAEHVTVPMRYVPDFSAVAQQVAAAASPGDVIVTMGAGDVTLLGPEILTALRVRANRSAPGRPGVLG

T2: arylamine N-acetyltransferase/Nat (Rv3566) of Mycobacterium tuberculosis, M-PFC fusion (Mycobacterium tuberculosis H37Rv) (UniProt P9WJI5)
T2 sequence: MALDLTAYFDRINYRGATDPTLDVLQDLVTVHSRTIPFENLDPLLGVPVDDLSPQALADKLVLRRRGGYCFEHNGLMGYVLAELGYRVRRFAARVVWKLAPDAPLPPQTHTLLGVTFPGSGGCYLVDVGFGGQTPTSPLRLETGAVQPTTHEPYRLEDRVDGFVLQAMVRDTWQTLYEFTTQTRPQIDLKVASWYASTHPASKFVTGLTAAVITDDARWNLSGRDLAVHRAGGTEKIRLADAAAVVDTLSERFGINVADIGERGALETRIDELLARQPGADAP

T3: MurE synthetase (Rv2158c) of Mycobacterium tuberculosis, M-PFC fusion (Mycobacterium tuberculosis H37Rv) (UniProt P9WJL3)
T3 sequence: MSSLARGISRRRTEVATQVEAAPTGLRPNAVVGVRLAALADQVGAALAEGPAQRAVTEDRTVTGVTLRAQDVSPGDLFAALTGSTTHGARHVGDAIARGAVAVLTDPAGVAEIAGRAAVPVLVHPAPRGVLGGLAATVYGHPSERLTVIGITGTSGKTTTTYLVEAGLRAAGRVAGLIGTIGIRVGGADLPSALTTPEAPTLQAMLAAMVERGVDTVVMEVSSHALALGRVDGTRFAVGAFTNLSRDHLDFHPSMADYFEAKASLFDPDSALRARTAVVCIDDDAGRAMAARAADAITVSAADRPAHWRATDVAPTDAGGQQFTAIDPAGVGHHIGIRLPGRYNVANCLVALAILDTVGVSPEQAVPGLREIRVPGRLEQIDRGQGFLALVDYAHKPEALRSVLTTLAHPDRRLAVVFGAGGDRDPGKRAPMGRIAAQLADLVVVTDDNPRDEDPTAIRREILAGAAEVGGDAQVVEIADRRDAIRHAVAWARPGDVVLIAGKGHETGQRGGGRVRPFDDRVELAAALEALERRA

T4: MurD synthetase (Rv2155c) of Mycobacterium tuberculosis, M-PFC fusion (Mycobacterium tuberculosis H37Rv) (UniProt P9WJL5)
T4 sequence: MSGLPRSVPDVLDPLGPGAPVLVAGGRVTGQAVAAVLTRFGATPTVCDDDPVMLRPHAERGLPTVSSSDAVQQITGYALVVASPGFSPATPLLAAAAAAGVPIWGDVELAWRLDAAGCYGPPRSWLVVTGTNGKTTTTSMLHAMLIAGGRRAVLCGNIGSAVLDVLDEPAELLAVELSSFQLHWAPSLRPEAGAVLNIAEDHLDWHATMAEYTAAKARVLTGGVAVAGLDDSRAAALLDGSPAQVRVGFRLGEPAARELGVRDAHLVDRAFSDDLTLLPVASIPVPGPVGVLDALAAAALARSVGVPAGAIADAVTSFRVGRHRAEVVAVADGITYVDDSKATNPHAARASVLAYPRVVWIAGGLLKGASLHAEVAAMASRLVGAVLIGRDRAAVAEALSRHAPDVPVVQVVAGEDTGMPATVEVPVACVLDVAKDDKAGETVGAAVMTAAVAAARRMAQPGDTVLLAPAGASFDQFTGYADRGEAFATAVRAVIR

T5: MurF synthetase (Rv2157c) of Mycobacterium tuberculosis, M-PFC fusion (Mycobacterium tuberculosis H37Rv) (UniProt P9WJL1)
T5 sequence: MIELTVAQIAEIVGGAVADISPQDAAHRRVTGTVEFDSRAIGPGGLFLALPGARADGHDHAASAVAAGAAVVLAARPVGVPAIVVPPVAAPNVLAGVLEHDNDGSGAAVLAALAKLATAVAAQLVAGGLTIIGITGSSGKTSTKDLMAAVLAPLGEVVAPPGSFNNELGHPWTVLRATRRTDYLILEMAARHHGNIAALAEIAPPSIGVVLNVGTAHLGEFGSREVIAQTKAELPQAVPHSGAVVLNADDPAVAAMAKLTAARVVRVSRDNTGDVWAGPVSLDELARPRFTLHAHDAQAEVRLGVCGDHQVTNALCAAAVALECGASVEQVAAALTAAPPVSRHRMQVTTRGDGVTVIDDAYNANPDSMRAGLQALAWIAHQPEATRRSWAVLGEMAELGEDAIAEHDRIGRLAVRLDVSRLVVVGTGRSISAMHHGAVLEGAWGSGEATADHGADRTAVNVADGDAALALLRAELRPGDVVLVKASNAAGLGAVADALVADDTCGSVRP

B1: cell division protein FtsZ (Rv2150c) of Mycobacterium tuberculosis, M-PFC fusion (protein, UniProt P9WN95 1-379)
chain: MTPPHNYLAVIKVVGIGGGGVNAVNRMIEQGLKGVEFIAINTDAQALLMSDADVKLDVGRDSTRGLGAGADPEVGRKAAEDAKDEIEELLRGADMVFVTAGEGGGTGTGGAPVVASIARKLGALTVGVVTRPFSFEGKRRSNQAENGIAALRESCDTLIVIPNDRLLQMGDAAVSLMDAFRSADEVLLNGVQGITDLITTPGLINVDFADVKGIMSGAGTALMGIGSARGEGRSLKAAEIAINSPLLEASMEGAQGVLMSIAGGSDLGLFEINEAASLVQDAAHPDANIIFGTVIDDSLGDEVRVTVIAAGFDVSGPGRKPVMGETGGAHRIESAKAGKLTSTLFEPVDAVSVPLHTNGATLSIGGDDDDVDVPPFMRR
B2: Wag31 (Rv2145c), homologue of DivIVA, of Mycobacterium tuberculosis, M-PFC fusion (protein, UniProt P9WMU1 1-260)
chain: MPLTPADVHNVAFSKPPIGKRGYNEDEVDAFLDLVENELTRLIEENSDLRQRINELDQELAAGGGAGVTPQATQAIPAYEPEPGKPAPAAVSAGMNEEQALKAARVLSLAQDTADRLTNTAKAESDKMLADARANAEQILGEARHTADATVAEARQRADAMLADAQSRSEAQLRQAQEKADALQADAERKHSEIMGTINQQRAVLEGRLEQLRTFEREYRTRLKTYLESQLEELGQRGSAAPVDSNADAGGFDQFNRGKN
B3: purified recombinant M. tuberculosis MurC synthetase (enzyme, UniProt P9WJL7 1-494)
chain: T1 sequence
B4: purified recombinant M. tuberculosis MurD synthetase (enzyme, UniProt P9WJL5 1-496)
chain: T4 sequence
B5: purified recombinant M. tuberculosis MurE synthetase (enzyme, UniProt P9WJL3 1-535)
chain: T3 sequence

Experiments:
[1] = target: T1, MurC synthetase (Rv2152c) of Mycobacterium tuberculosis, M-PFC fusion (Mycobacterium tuberculosis H37Rv); assay: split reporter
[2] = target: T2, arylamine N-acetyltransferase/Nat (Rv3566) of Mycobacterium tuberculosis, M-PFC fusion (Mycobacterium tuberculosis H37Rv); assay: split reporter
[3] = target: T3, MurE synthetase (Rv2158c) of Mycobacterium tuberculosis, M-PFC fusion (Mycobacterium tuberculosis H37Rv); assay: split reporter
[4] = target: T4, MurD synthetase (Rv2155c) of Mycobacterium tuberculosis, M-PFC fusion (Mycobacterium tuberculosis H37Rv); assay: split reporter
[5] = target: T5, MurF synthetase (Rv2157c) of Mycobacterium tuberculosis, M-PFC fusion (Mycobacterium tuberculosis H37Rv); assay: split reporter
[6] = target: T1, MurC synthetase (Rv2152c) of Mycobacterium tuberculosis, M-PFC fusion (Mycobacterium tuberculosis H37Rv); assay: split reporter; remark: listed apart in the source
[7] = target: T2, arylamine N-acetyltransferase/Nat (Rv3566) of Mycobacterium tuberculosis, M-PFC fusion (Mycobacterium tuberculosis H37Rv); assay: split reporter; remark: listed apart in the source
[8] = target: T3, MurE synthetase (Rv2158c) of Mycobacterium tuberculosis, M-PFC fusion (Mycobacterium tuberculosis H37Rv); assay: split reporter; remark: listed apart in the source
[9] = target: T4, MurD synthetase (Rv2155c) of Mycobacterium tuberculosis, M-PFC fusion (Mycobacterium tuberculosis H37Rv); assay: split reporter; remark: listed apart in the source
[10] = target: T5, MurF synthetase (Rv2157c) of Mycobacterium tuberculosis, M-PFC fusion (Mycobacterium tuberculosis H37Rv); assay: split reporter; remark: listed apart in the source
[11] = target: purified recombinant M. tuberculosis MurC synthetase (Mycobacterium tuberculosis H37Rv) (UniProt P9WJL7); assay: SEC; both purified
[12] = target: purified recombinant M. tuberculosis MurD synthetase (Mycobacterium tuberculosis) (UniProt P9WJL5); assay: SEC; both purified
[13] = target: purified recombinant M. tuberculosis MurE synthetase (Mycobacterium tuberculosis) (UniProt P9WJL3); assay: SEC; both purified

| Molecule | binding [1] | binding [2] | binding [3] | binding [4] | binding [5] | also measured |
| --- | --- | --- | --- | --- | --- | --- |
| cell division protein FtsW (Rv2154c) of Mycobacterium tuberculosis, M-PFC fusion (from UniProt P9WN97 1-524) | binds | no binding | binds | binds | binds | – |
| cell division protein FtsQ (Rv2151c) of Mycobacterium tuberculosis, M-PFC fusion (from UniProt P9WNA1 1-314) | binds | no binding | binds | binds | binds | – |
| Rv2147c (ortholog of SepF) of Mycobacterium tuberculosis, M-PFC fusion (from UniProt P9WGJ5 1-218) | binds | no binding | binds | binds | binds | – |
| B1 | – | – | – | – | – | binding [6]: binds; binding [7]: no binding; binding [8]: binds; binding [9]: binds; binding [10]: binds |
| B2 | – | – | – | – | – | binding [6]: binds; binding [7]: no binding; binding [8]: binds; binding [9]: binds; binding [10]: binds |
| B3 | – | – | – | – | – | binding [11]: no binding |
| B4 | – | – | – | – | – | binding [12]: no binding |
| B5 | – | – | – | – | – | binding [13]: no binding |
